The campaign covered roughly 310,000 compounds. About 2,200 (0.71%) showed an effect of 50% or more. Effects have a minus sign here. Some of the results follow.
molecular target: human ether-à-go-go-related gene (hERG) potassium channel (human, UniProt Q12809); experiment: primary screen, population patch clamp on CHO cells stably expressing hERG
Sequence (Q12809 whole entry, looked up): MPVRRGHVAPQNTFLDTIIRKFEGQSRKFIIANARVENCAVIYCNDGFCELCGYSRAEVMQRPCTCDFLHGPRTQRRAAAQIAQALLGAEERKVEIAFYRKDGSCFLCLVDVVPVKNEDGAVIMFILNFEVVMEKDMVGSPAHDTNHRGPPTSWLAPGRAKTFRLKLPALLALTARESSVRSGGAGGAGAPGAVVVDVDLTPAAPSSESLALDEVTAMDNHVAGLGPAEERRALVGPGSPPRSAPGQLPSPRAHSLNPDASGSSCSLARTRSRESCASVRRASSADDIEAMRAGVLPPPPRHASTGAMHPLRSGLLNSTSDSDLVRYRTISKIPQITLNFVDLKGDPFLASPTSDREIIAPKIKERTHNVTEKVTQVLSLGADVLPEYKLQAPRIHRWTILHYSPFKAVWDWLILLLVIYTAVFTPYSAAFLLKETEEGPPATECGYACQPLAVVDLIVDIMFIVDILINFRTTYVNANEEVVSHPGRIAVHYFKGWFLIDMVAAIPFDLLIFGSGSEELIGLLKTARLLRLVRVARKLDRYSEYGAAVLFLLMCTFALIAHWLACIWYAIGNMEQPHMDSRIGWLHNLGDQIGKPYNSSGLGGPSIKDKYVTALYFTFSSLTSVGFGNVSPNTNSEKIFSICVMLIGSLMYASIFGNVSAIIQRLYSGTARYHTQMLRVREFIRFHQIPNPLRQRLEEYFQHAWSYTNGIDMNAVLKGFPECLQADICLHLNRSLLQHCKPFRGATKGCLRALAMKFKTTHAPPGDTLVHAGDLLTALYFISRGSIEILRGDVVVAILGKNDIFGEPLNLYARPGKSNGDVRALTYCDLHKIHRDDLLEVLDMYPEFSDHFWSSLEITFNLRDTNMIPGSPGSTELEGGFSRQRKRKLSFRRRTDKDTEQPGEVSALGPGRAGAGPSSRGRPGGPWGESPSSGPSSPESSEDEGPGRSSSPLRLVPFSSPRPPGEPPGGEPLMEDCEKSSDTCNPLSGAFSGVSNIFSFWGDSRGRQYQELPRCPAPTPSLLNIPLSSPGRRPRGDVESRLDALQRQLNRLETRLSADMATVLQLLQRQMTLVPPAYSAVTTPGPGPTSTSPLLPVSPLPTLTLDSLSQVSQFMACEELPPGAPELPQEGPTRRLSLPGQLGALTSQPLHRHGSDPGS

SMILES | hERG current change (%, negative = inhibition) at 1uM [%]
COc1ccccc1N1CCN(Cc2ccccc2)CC1.O=C(O)C(=O)O | 6.85
Cc1nn(-c2ccccc2)c(=S)n1-c1ccccc1 | 11.2
COc1ccc(Cl)c(NC(=O)Nc2c(C)n(-c3ccccc3)c(=O)n2C)c1 | 9
COc1ccc(/C=c2\s/c(=C\C(=O)C(C)(C)C)[nH]c2=O)cc1O | 3.15
Cc1cccc(Nc2nc(-c3ccc(F)cc3)cs2)n1 | 11.4
CCc1ccc(NC(=O)C2CCCN2c2nn3c(=O)cc(C)nc3s2)cc1 (stereo not drawn) | 4.97
N/C(=N\OC(=O)COc1ccc(Br)cc1)c1ccncc1 | 8.38
COc1cc2c(cc1OC)C(c1ccccc1Br)NC(=O)C2 (stereo not drawn) | 13.8
Nc1ccc(S(N)(=O)=O)cc1 | 5.26
CC(=NCC1CCCO1)c1c(O)n(-c2ccc(Cl)cc2)c(=O)[nH]c1=O (stereo not drawn) | 9.81
O=S(=O)(NCc1cccc(C(F)(F)F)c1)NCc1ccccc1F | -7.13
CC(C)(C)c1ccc(C2(C)NC(=O)NC2=O)cc1 (stereo not drawn) | 13.7
COc1ccccc1C(CNC(=O)C(CCSC)NS(=O)(=O)c1ccccc1F)N1CCCC1 (stereo not drawn) | -3.75
CCOc1ccccc1NC(=O)C1CCCN(c2c(CC)c(C)nc3ncnn23)C1 (stereo not drawn) | -22.2
CN(C(=O)CCc1nnc(CCCCc2ccccc2)o1)C1CC(C)(C)NC(C)(C)C1 | 11.3
COc1cccc(C2CC(=O)Nc3c2c(=O)n(C)c(=O)n3C)c1OC (stereo not drawn) | 12.3
COc1ccc(-c2nnc3n2CCCCC3)cc1OC | 10.3
O=C(NCCc1ccc(F)cc1)C1CCCO1 (stereo not drawn) | 8.13
Cc1cc(C(=O)OCC(=O)NC(C)C)c(C)o1 | 12.2

SMILES | hERG current change (%, negative = inhibition) at 1uM [%]
O=C1CC(N2CCN(C/C=C/c3ccccc3)CC2)C(=O)N1Cc1ccc(N2CCCC2=O)cc1 (stereo not drawn) | -13
O=C1Cc2ccccc2C(=O)N1Cc1cccc(Cl)c1 | 6.17
CC(=O)c1cccc(NC(=O)COC(=O)CCc2ccc(S(=O)(=O)N3CCOCC3)cc2)c1 | 5.85
O=C(CNS(=O)(=O)c1ccc(F)cc1)Nc1ccccc1 | 13.1
CC1(OC(=O)C2CCCC2)C(=O)C=C2C=C(c3ccsc3)N(c3ccccc3)C=C2C1=O (stereo not drawn) | 10.7
COC(=O)Cc1c(C)c2cc(Cl)c(OC(=O)c3ccco3)cc2oc1=O | 19.8
COc1ccc(C(=O)Nc2ccc(S(=O)(=O)Nc3ncccn3)cc2)cc1OC | 15.7
Cc1ccc(-c2nc(=S)c3c(n2CC2CCCO2)CC(C)(C)OC3)cc1 (stereo not drawn) | 1.15
CCOC(=O)C1=C(C)OC(N)=C(C#N)C1c1ccc(C)s1 (stereo not drawn) | 9.11
COc1ccccc1C(=O)Nc1ccc(N2CCN(C(C)=O)CC2)cc1 | 13.3
O=C(NCC(c1ccco1)N1CCc2ccccc2C1)c1cccc([N+](=O)[O-])c1 (stereo not drawn) | -9.65
Nc1cn(C2OC(CO)C(O)C2O)c(=O)[nH]c1=O (stereo not drawn) | 12.5
CC(=O)N/C(=C/c1ccccc1)C(=O)NC(Cc1ccccc1)C(=O)O (stereo not drawn) | 16.8
COc1ccc(N(C(C)=O)S(=O)(=O)c2cccs2)cc1 | 14.2
COC(=O)CSc1nc(NCc2ccccc2)nc(N(C)C)n1 | 8.88
O=C(Cn1cc2c(n1)CCCC2)NCc1cccnc1 | 10.8
COCCNC(=O)Cn1c(=O)n(CCC(=O)NCCc2ccccc2)c(=O)c2ccccc21 | 7.92
CCOC(=O)c1sc(=N)n(-c2ccc(OC)cc2)c1C | 9.86
O=C(CCC1CCN(C(=O)c2cc(C(F)(F)F)ccc2Cl)CC1)NC1CC1 | 6.54

SMILES | hERG current change (%, negative = inhibition) at 1uM [%]
CCOC(=O)C1CCN(c2cc3c(cc2NC(=O)c2ccccc2Br)n(C)c(=O)n3C)CC1 | 13.8
CC1CC1C(=O)Nc1nc(-c2ccccc2)cs1 (stereo not drawn) | 5.05
Cc1cc(C(=O)CSc2nnc(-c3ccco3)o2)c(C)n1-c1ccc2c(c1)OCCO2 | 7.7
Cc1ccc(C)c(OCCCCN2CCCCC2)c1.O=C(O)C(=O)O | 2.35
COc1cc2c(cc1OC)C(C)NCC2.Cl (stereo not drawn) | 15.1
COc1cc(C)c(S(=O)(=O)n2nnc3ccccc32)cc1C | 11.7
CC(NC(=O)c1ccc(F)cc1Cl)C1CC2CCC1C2 (stereo not drawn) | 15.6
CCc1ccc(C2CC(c3ccc(F)cc3)Nc3nc(N)nn32)cc1 (stereo not drawn) | 5.99
COc1ccc(N2CCN(S(=O)(=O)CCNC(=O)c3ccco3)CC2)cc1 | 5.7
COc1ccc(C)cc1C1=CC(=O)C[C@H](c2ccc(F)cc2)C1 | 4.96
Cc1ccc(C(=O)O/N=C(\c2ccccc2)c2cccnc2)cc1 | 9.91
Cc1ccc(S(=O)(=O)NNC(=O)/C=C/c2cccc(F)c2)cc1 | 12.3
CC1(OC(=O)CCc2ccccc2)C(=O)C=C2C=C(c3ccc(C#N)cc3)N(CCN3CCOCC3)C=C2C1=O (stereo not drawn) | -2.54
CCc1nnc(NC(=O)C(c2ccccc2)c2ccccc2)s1 | 21.4
CC1(C)CC(=O)C2=C(C1)N(Cc1ccco1)C(=O)C2(NC(=O)c1cccnc1)C(F)(F)F (stereo not drawn) | -5.47
COc1ccc(C(=O)N2CCN(c3ccc(NC(=O)c4cccs4)cc3)CC2)cc1 | 6.61
Cn1cc(CN2CCCCC2CO)c(-c2ccc(Oc3ccccc3)cc2)n1 (stereo not drawn) | -8.54
Cc1ccc(S(=O)(=O)NC(=O)c2cc(C)n(C3CC3)c2C)cc1 | 8.77
Cc1cnc(C(=O)OCC(=O)N2CCc3ccccc32)cn1 | -5.43

— publication PMC4336329 (PLoS ONE, 2015)
